Results from PubChem BioAssay AID504832 (National Center for Advancing Translational Sciences (NCATS), 2011).
About 18,000 (5.8%) of roughly 310,000 compounds were called active. This list was built around the results that the source calls inconclusive (neither active nor inactive); the mix of calls is not that of the screen. Calls follow the shape of the dose curve; as a rule, active = well fitted inhibition curve with a large enough effect; inconclusive = small, poorly fitted or top-dose-only effect, or another doubt; inactive = no such curve, though single readings can be large or run the other way. No potency is given beside an inconclusive call; the fits are too rough.
% is scaled to controls: 0 for no effect and ±100 for the full control effect; potency is read from the fitted curve at half-maximal effect; tags tell the direction and shape of the fitted curve.

Experiment: Primary qHTS for delayed death inhibitors of the malarial parasite plastid, 48 hour incubation
Conditions: P. falciparum luciferase growth in erythrocytes; series mostly up to 28.7 µM; activity change, negative = inhibition: at the top concentration
Outline: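 Cell-based growth assay: transgenic P. falciparum expressing firefly luciferase, cultured in red cells within RPMI 1640 containing 0.5% w/v Albumax, 24 mM bicarbonate and gentamycin. A drop in luciferase activity indicates inhibition.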
With `COc1cc(/C=C2/SC(=Nc3ccc(O)cc3)NC2=O)ccc1O` the Potency was inconclusive [inhibitor, partial curve].
With `CCC(C)[C@H](NC(=O)OC(C)(C)C)C(=O)NCC1CCC(C(=O)N[C@@H](Cc2ccccc2)C(=O)O)CC1` (stereo partly specified) the Potency was inconclusive [inhibitor, partial curve, poor fit].
For `Cc1cc2nc(CCN(Cc3cccnc3)C(=S)Nc3ccc(F)cc3)[nH]c2cc1C`, the Potency was inconclusive [inhibitor, partial curve, poor fit].
In the case of `CCOc1cc(CNCC2CCCO2)cc(Br)c1OCC(N)=O` (stereo unspecified), the “activity change, negative = inhibition” value is reported as inactive: 52.8%.
With `COc1ccc(CNC(=O)CCCn2nc(C)n3ccnc3c2=O)cc1` the “activity change, negative = inhibition” value was inactive: 4.25%.
In the case of `COc1ccc(S(=O)(=O)N2CCN(C(=O)CCSc3ccccc3)CC2)cc1`, the Potency is reported as inconclusive [inhibitor, single point].
With `CCNC(=S)Nc1ccc(Cc2nc3ccccc3[nH]2)cc1` the “activity change, negative = inhibition” value was inactive: 12.8%.
In the case of `COC(=O)c1ccc(NC(=S)N2CCN(C(=O)c3ccco3)CC2)cc1`, the “activity change, negative = inhibition” value is reported as inactive: 5.23%.
In the case of `NC(=O)OCC(COC(N)=O)c1ccccc1`, the Potency is reported as “inactive”.
For `COc1ccc2[nH]c(C(=O)O)c(CCN3C(=O)c4cccc([N+](=O)[O-])c4C3=O)c2c1`, the “activity change, negative = inhibition” value was inactive: 31.4%.
With `CCCC(=O)N1CCN(c2nc3ccc(CC)cc3s2)CC1` the Potency was inconclusive [inhibitor, single point].
With `Cn1c(CCN2CCCCC2)nc2cc(NS(=O)(=O)c3ccc(Cl)cc3)ccc21` the Potency was active: 2.08 µM.
For `Cn1c(-c2ccc(F)cc2)cnc1NCc1ccc(F)cc1`, the Potency was inconclusive [inhibitor, partial curve, poor fit].
For `CC1C(=O)N2CCCc3cc(NS(=O)(=O)c4ccc(F)cc4)cc1c32` (stereo unspecified), the “activity change, negative = inhibition” value was inactive: -3.42%.
With `CN(Cc1ccccc1)Cc1nc2c(c(=O)n(C)c(=O)n2C)n1Cc1ccc(F)cc1` the Potency was active: 11.7 µM.
In the case of `c1ccc(-c2nnc(OCC3CCCO3)c3ccccc23)cc1` (stereo unspecified), the “activity change, negative = inhibition” value is reported as inactive: -3.15%.
With `CC(NC(=O)c1cc2c(s1)CS(=O)(=O)C2)c1ccccc1` (stereo unspecified) the “activity change, negative = inhibition” value was inactive: 11.1%.
With `O=C(NC1CCCCC1)c1cc(S(=O)(=O)N2CCOCC2)c(Cl)cc1Cl` the “activity change, negative = inhibition” value was inactive: -9.19%.
With `CCOC(=O)c1[nH]c(C)c(C(=O)OCC(=O)NC(C)c2ccc(F)cc2)c1C` (stereo unspecified) the Potency was inconclusive [inhibitor, partial curve, poor fit].
In the case of `Cc1nc2ccc(Nc3ccncc3)cc2s1`, the Potency is reported as inconclusive [inhibitor, partial curve, poor fit].
For `CC1(C#CC[N+]2(C)CCCCC2)CCC2C(O1)c1ccccc1OC2(C)C` (stereo unspecified), the Potency was active: 11.7 µM.
For `O=Cc1ccc(-n2cccn2)cc1`, the Potency was inconclusive [inhibitor, partial curve].
With `O=c1c2c(-c3ccc([N+](=O)[O-])cc3)csc2nc2n1CCCCC2` the Potency was inconclusive [inhibitor, single point].
With `O=C(Nc1ccc(S(=O)(=O)NCC2CCCO2)cc1)c1ccc(F)cc1` (stereo unspecified) the “activity change, negative = inhibition” value was inactive: -4.09%.
In the case of `Cc1ccc2nc(-c3ccncc3)cc(C(=O)Nc3ccc4c(c3)OCCO4)c2c1`, the Potency is reported as inconclusive [inhibitor, single point].
With `COC(=O)N1C(=O)[C@@](c2ccccc2)(C2CCCC2)N1C(=O)OC` the “activity change, negative = inhibition” value was inactive: 23.7%.
For `Cc1occc1C(=O)N/N=C/C=C/c1ccccc1`, the “activity change, negative = inhibition” value was inactive: 113%.
In the case of `O=C(Cn1ncc2c3ccccc3n(Cc3ccccc3F)c2c1=O)NCCCN1CCCC1=O`, the Potency is reported as inconclusive [inhibitor, partial curve].
In the case of `Cc1ccc(C(=O)C(SC(C)(C)C)n2cncn2)cc1` (stereo unspecified), the Potency is reported as inconclusive [inhibitor, full curve, poor fit].
With `O=S(=O)(Cc1ccccc1)N1CCCCCC1` the “activity change, negative = inhibition” value was inactive: 13.4%.
For `Cc1cc(OC(=O)N(C)C)nc(SCc2c(Cl)cccc2Cl)n1`, the Potency was inconclusive [inhibitor, full curve, poor fit].
With `COc1cccc(CNC(=O)CCCN2C(=O)C(c3ccccc3)Oc3cccnc32)c1OC` (stereo unspecified) the Potency was inconclusive [inhibitor, single point].
In the case of `C[C@@H](C(=O)O)c1ccc(C(=O)c2ccccc2)s1`, the “activity change, negative = inhibition” value is reported as inactive: 5.97% [at 12.8 µM].
For `CCOc1ccc(S(=O)(=O)NC(Cc2cnc[nH]2)C(=O)O)cc1` (stereo unspecified), the “activity change, negative = inhibition” value was inactive: 17.8%.
In the case of `O=C(O)c1ccc2c(c1)C(=O)N([C@]1(C(=O)O)C[C@H]1c1ccccc1)C2=O`, the Potency is reported as inconclusive [inhibitor, single point].
In the case of `CCN(Cc1ccccc1)C(c1ccc(Cl)cc1)c1nnnn1C(C)(C)C` (stereo unspecified), the Potency is reported as inconclusive [inhibitor, partial curve, poor fit].
For `COc1ccc(/C=C/C(=O)NCCn2c(C)cc3ccccc32)cc1OC`, the Potency was inconclusive [inhibitor, single point].
With `COc1cccc(C(c2sc3nc(C)nn3c2O)N2CCc3ccccc3C2)c1` (stereo unspecified) the Potency was inconclusive [inhibitor, single point].
In the case of `CCc1cccc2c(C(=O)C(NCCCOC)c3ccccc3)c[nH]c12` (stereo unspecified), the Potency is reported as inconclusive [inhibitor, single point].
For `COC(=O)c1cc(OC)c(OC)cc1NC(=O)c1cc(OC)cc(OC)c1`, the Potency was inconclusive [inhibitor, full curve].
In the case of `CCCc1cc2c(-c3ccccc3)cc(=O)oc2cc1OCc1ccc(C(=O)O)o1`, the Potency is reported as inconclusive [inhibitor, single point].
With `Cc1[nH]c2ccccc2c1C(c1ccncc1)N1CCN(c2ccc(F)cc2)CC1` (stereo unspecified) the Potency was inconclusive [inhibitor, partial curve, poor fit].
With `Cc1ccc(Cl)c(NC(=O)CSc2n[nH]c(=O)n2C2CC2)c1Cl` the “activity change, negative = inhibition” value was inactive: -1.4%.
With `COc1ccc(NS(=O)(=O)c2cc(C(=O)Nc3ccccc3C(=O)O)ccc2C)cc1` the Potency was inconclusive [inhibitor, full curve, poor fit].
For `O=c1[nH]c(CN2CCN(C/C=C/c3ccccc3)CC2)nc2cc(Cl)ccc12`, the Potency was inconclusive [inhibitor, single point].
For `Cc1ccc(C)c(NC(=S)N/N=C2/CCCCc3ccccc32)c1`, the Potency was active: 8.28 µM.
For `O=C(NCC1CCN(Cc2ccccc2F)CC1)Nc1cc(F)ccc1F`, the Potency was inconclusive [inhibitor, partial curve].
For `O=C(NCc1ccccn1)c1ccc(OC2CCN(Cc3ccccc3O)CC2)cc1`, the Potency was inconclusive [inhibitor, partial curve, poor fit].
With `COc1ccc2c(c1OC)C(=O)OC2[C@H]1c2c(cc3c(c2OC)OCO3)CCN1C` (stereo partly specified) the Potency was inconclusive [inhibitor, single point].
With `C/C(=N\NC(=O)CC(C)C)c1c(C(F)(F)F)[nH]n(-c2nc3ccccc3s2)c1=O` the Potency was inconclusive [inhibitor, single point].
For `O=C(CCN1C(=O)/C(=C/C=C/c2ccccc2)SC1=S)Nc1nc2ccccc2s1`, the “activity change, negative = inhibition” value was inactive: -10.1%.
With `CC(NC(=O)c1cccs1)C(c1cccs1)N1CCN(Cc2ccccc2)CC1` (stereo unspecified) the Potency was inconclusive [inhibitor, single point].
For `COc1ccc(NC(=O)CCN2CCN(S(=O)(=O)c3ccc(OC)cc3)CC2)cc1`, the Potency was inconclusive [inhibitor, single point].
With `C[N+](C)(C)CCNC(=O)c1c(O)c2c([nH]c1=O)CCCC2` the Potency was inconclusive [inhibitor, single point].
For `O=C(OCC(=O)N1CCCCCC1)c1ccc([N+](=O)[O-])cc1Cl`, the Potency was inconclusive [inhibitor, single point].
In the case of `CN(C)C(=O)CCC(=O)N(C)CC1CCCN(CCc2ccc(F)cc2)C1` (stereo unspecified), the “activity change, negative = inhibition” value is reported as inactive: 23.4%.
For `Cc1cc(C)c(NC(=O)CSc2nc3ccccc3c(=O)n2CCCN2CCOCC2)c(C)c1`, the Potency was inconclusive [inhibitor, single point].
For `CC(=O)Cc1nsc(NC(=O)c2ccc(F)cc2)n1`, the “activity change, negative = inhibition” value was inactive: 27.4%.
With `CSCC(=O)N1CCCC(N2CCN(c3ccc(F)cc3)CC2)C1` (stereo unspecified) the “activity change, negative = inhibition” value was inactive: -16.1%.
With `COc1ccc(N2CCc3c(C)nc4c(OC)cc(OC)cc4c32)c(OC)c1` the Potency was inconclusive [inhibitor, partial curve].
In the case of `O=C(CCc1ccccn1)N1CCCC(N2CCN(c3cccc(C(F)(F)F)c3)CC2)C1` (stereo unspecified), the Potency is reported as inconclusive [inhibitor, partial curve].
In the case of `CCN(c1ccc(NC(=O)CCc2nc3sc4c(c3c(=O)[nH]2)CCCC4)cc1)C(C)C`, the Potency is reported as inconclusive [inhibitor, single point].
For `COc1ccccc1-n1cnc2cc(NCc3ccccc3O)ccc21`, the Potency was inconclusive [inhibitor, single point].
For `CCOc1cc(C(=S)N2CCOCC2)ccc1OS(=O)(=O)c1ccccc1[N+](=O)[O-]`, the Potency was inconclusive [inhibitor, single point].
For `c1ccc2c3c([nH]c2c1)C(C1CCCCC1)N(Cc1ncc[nH]1)CC3` (stereo unspecified), the Potency was active: 2.08 µM.
In the case of `COC(=O)Cc1ccc(OC(=O)CCS(=O)(=O)c2ccc(C)cc2)cc1`, the “activity change, negative = inhibition” value is reported as inactive: -19.8%.
For `CN(C)CC1CCCCC1OC(=O)/C=C/c1ccc(Cl)cc1Cl` (stereo unspecified), the “activity change, negative = inhibition” value was inactive: 3.81%.
For `CCc1cccc2c(C#N)cn(CC(=O)NCc3ccco3)c12`, the Potency was active: 10.4 µM.
With `O=c1c([N+](=O)[O-])c(N2CCOCC2)c2ccccc2n1Cc1ccccc1` the Potency was inconclusive [inhibitor, partial curve].
In the case of `CC1CC(C)CN(C(=O)COC(=O)c2cc([N+](=O)[O-])ccc2N2CCOCC2)C1` (stereo unspecified), the Potency is reported as inconclusive [inhibitor, single point].
For `COc1ccc(NC(=O)CSc2nc3c([nH]c4ccccc43)c(=O)n2C)c(OC)c1`, the “activity change, negative = inhibition” value was inactive: 4.18%.
